Assay results reported in the supplement of paper PMC11741623.
The other results are listed elsewhere or left out. Interaction screen of human proteins with wild-type SARS-CoV-2 proteins by split-DHFR complementation in yeast, 1 µg/mL methotrexate. Value = fitness of the pair (three or more lineages) minus that of the viral protein without a human partner, on a scale set by negative (0) and fused positive (1) controls, mean of up to three cultures; higher = more likely to interact. Active = false discovery rate below 0.05 (one-sided t-test) in at least one culture. Nearly all pairs are not hits, and differences among them are mostly noise (correlation between cultures about 0.3); most hits were seen in one culture only. Human sequences are the Swiss-Prot entries looked up by gene name; the clone may be another isoform. NSP2 values were corrected by the authors for a growth advantage. Listed are human proteins with a hit and a random twelfth of the others.

Columns and labels:
Test in all cases: yeast fitness gain over the viral ORF with no human partner (scaled fitness); higher = more likely to interact
SARS-CoV-2 E = molecular target: SARS-CoV-2 E
Method: (§1)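 Split mouse DHFR complementation in pooled diploid yeast: human ORFeome clones carry one fragment and viral ORFs the other; barcoded lineages compete in 1 µg/mL methotrexate and fitness is read by barcode sequencing in up to three cultures.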

SARS-CoV-2 M = molecular target: SARS-CoV-2 M
Method: as §1

SARS-CoV-2 N = molecular target: SARS-CoV-2 N
Method: as §1

SARS-CoV-2 NSP1 = molecular target: SARS-CoV-2 NSP1
Method: as §1

SARS-CoV-2 NSP10 = molecular target: SARS-CoV-2 NSP10
Method: as §1

SARS-CoV-2 NSP12 = molecular target: SARS-CoV-2 NSP12
Method: as §1

SARS-CoV-2 NSP13 = molecular target: SARS-CoV-2 NSP13
Method: as §1

SARS-CoV-2 NSP14 = molecular target: SARS-CoV-2 NSP14
Method: as §1

SARS-CoV-2 NSP15 = molecular target: SARS-CoV-2 NSP15
Method: as §1

SARS-CoV-2 NSP16 = molecular target: SARS-CoV-2 NSP16
Method: as §1

SARS-CoV-2 NSP2 = molecular target: SARS-CoV-2 NSP2
Method: as §1

SARS-CoV-2 NSP4 = molecular target: SARS-CoV-2 NSP4
Method: as §1

SARS-CoV-2 NSP5 = molecular target: SARS-CoV-2 NSP5
Method: as §1

SARS-CoV-2 NSP6 = molecular target: SARS-CoV-2 NSP6
Method: as §1

SARS-CoV-2 NSP7 = molecular target: SARS-CoV-2 NSP7
Method: as §1

SARS-CoV-2 NSP8 = molecular target: SARS-CoV-2 NSP8
Method: as §1

SARS-CoV-2 NSP9 = molecular target: SARS-CoV-2 NSP9
Method: as §1

SARS-CoV-2 ORF10 = molecular target: SARS-CoV-2 ORF10
Method: as §1

SARS-CoV-2 ORF3A = molecular target: SARS-CoV-2 ORF3A
Method: as §1

SARS-CoV-2 ORF3B = molecular target: SARS-CoV-2 ORF3B
Method: as §1

SARS-CoV-2 ORF6 = molecular target: SARS-CoV-2 ORF6
Method: as §1

SARS-CoV-2 ORF7A = molecular target: SARS-CoV-2 ORF7A
Method: as §1

SARS-CoV-2 ORF7B = molecular target: SARS-CoV-2 ORF7B
Method: as §1

SARS-CoV-2 ORF8 = molecular target: SARS-CoV-2 ORF8
Method: as §1

SARS-CoV-2 ORF9B = molecular target: SARS-CoV-2 ORF9B
Method: as §1

[1] = molecular target: SARS-CoV-2 ORF9Bwu (the 73-codon ORF)
Method: as §1

SARS-CoV-2 S = molecular target: SARS-CoV-2 S
Method: as §1

Row | Binder | yeast fitness gain (SARS-CoV-2 E) | yeast fitness gain (SARS-CoV-2 M) | yeast fitness gain (SARS-CoV-2 N) | yeast fitness gain (SARS-CoV-2 NSP1) | yeast fitness gain (SARS-CoV-2 NSP10) | yeast fitness gain (SARS-CoV-2 NSP12) | yeast fitness gain (SARS-CoV-2 NSP13) | yeast fitness gain (SARS-CoV-2 NSP14) | yeast fitness gain (SARS-CoV-2 NSP15) | yeast fitness gain (SARS-CoV-2 NSP16) | yeast fitness gain (SARS-CoV-2 NSP2) | yeast fitness gain (SARS-CoV-2 NSP4) | yeast fitness gain (SARS-CoV-2 NSP5) | yeast fitness gain (SARS-CoV-2 NSP6) | yeast fitness gain (SARS-CoV-2 NSP7) | yeast fitness gain (SARS-CoV-2 NSP8) | yeast fitness gain (SARS-CoV-2 NSP9) | yeast fitness gain (SARS-CoV-2 ORF10) | yeast fitness gain (SARS-CoV-2 ORF3A) | yeast fitness gain (SARS-CoV-2 ORF3B) | yeast fitness gain (SARS-CoV-2 ORF6) | yeast fitness gain (SARS-CoV-2 ORF7A) | yeast fitness gain (SARS-CoV-2 ORF7B) | yeast fitness gain (SARS-CoV-2 ORF8) | yeast fitness gain (SARS-CoV-2 ORF9B) | yeast fitness gain [1] | yeast fitness gain (SARS-CoV-2 S)
1 | TAS2R7, Q9NYW3 (protein) MADKVQTTLLFLAVGEFSVGILGNAFIGLVNCMDWVKKRKIASIDLILTSLAISRICLLCVILLDCFILVLYPDVYATGKEMRIIDFFWTLTNHLSIWFATCLSIYYFFKIGNFFHPLFLWMKWRIDRVISWILLGCVVLSVFISLPATENLNADFRFCVKAKRKTNLTWSCRVNKTQHASTKLFLNLATLLPFCVCLMSFFLLILSLRRHIRRMQLSATGCRDPSTEAHVRALKAVISFLLLFIAYYLSFLIATSSYFMPETELAVIFGESIALIYPSSHSFILILGNNKLRHASLKVIWKVMSILKGRKFQQHKQI | inactive: 0.363 | inactive: -0.0157 | inactive: 0.0696 | inactive: 0.0119 | inactive: -0.0498 | inactive: -0.0414 | inactive: -0.0258 | inactive: 0.176 | inactive: -0.152 | inactive: -0.0818 | inactive: -0.178 | active: 0.795 | inactive: -0.0332 | inactive: -0.0908 | inactive: -0.202 | inactive: -0.0695 | inactive: -0.071 | inactive: -0.0328 | inactive: 0.143 | inactive: -0.083 | inactive: -0.09 | active: 0.611 | active: 0.782 | inactive: -0.104 | inactive: -0.0698 | inactive: 0.283 | inactive: -0.0268
2 | VSIG8, P0DPA2 (protein) MRVGGAFHLLLVCLSPALLSAVRINGDGQEVLYLAEGDNVRLGCPYVLDPEDYGPNGLDIEWMQVNSDPAHHRENVFLSYQDKRINHGSLPHLQQRVRFAASDPSQYDASINLMNLQVSDTATYECRVKKTTMATRKVIVTVQARPAVPMCWTEGHMTYGNDVVLKCYASGGSQPLSYKWAKISGHHYPYRAGSYTSQHSYHSELSYQESFHSSINQGLNNGDLVLKDISRADDGLYQCTVANNVGYSVCVVEVKVSDSRRIGVIIGIVLGSLLALGCLAVGIWGLVCCCCGGSGAGGARGAFGYGNGGGVGGGACGDLASEIREDAVAPGCKASGRGSRVTHLLGYPTQNVSRSLRRKYAPPPCGGPEDVALAPCTAAAACEAGPSPVYVKVKSAEPADCAEGPVQCKNGLLV | inactive: -0.055 | inactive: 0.0325 | inactive: -0.0313 | inactive: 0.0352 | inactive: -0.0515 | inactive: -0.0328 | inactive: -0.0599 | inactive: -0.333 | inactive: 0.0513 | inactive: -0.0626 | inactive: -0.129 | inactive: 0.0605 | inactive: 0.0419 | inactive: -0.00128 | inactive: 0.021 | inactive: -0.0346 | inactive: -0.0381 | inactive: -0.0426 | inactive: -0.000841 | inactive: -0.019 | inactive: 0.00813 | inactive: 0.071 | inactive: -0.0546 | inactive: -0.0433 | inactive: -0.022 | inactive: 0.0191 | inactive: 0.063
3 | XKR6, Q5GH73 (protein) MAAKSDGGGVGVGFAQLHNLDEAVGSGGEEDGEPGGGGCGGGGDGSEPGESSSMHICHCCNTSSCYWGCRSACLRSLLGRKPRRSAAADGGDQPLQPPAAPGAGRQPPTPSAARPEPPPPQVERPWLDCLWIVLALLVFFGDVGTDLWLALDYYRKGDYVYFGLTLFFVLVPSLLVQSLSFRWFVQDYTGGGLGAVEGLTSRGPPMMGAGYVHGAARGGPGVRVSPTPGAQRLCRLSVWIWQSVIHLLQMGQVWRYIRTMYLGIQSQRRKEHQRRFYWAMMYEYADVNMLRLLETFLESAPQLVLQLYIMLQKNSAETLPCVSSVTSLMSLAWVLASYHKLLRDSRDDKKSMSYRGAIIQVFWRLFTISSRVISFALFASIFQLYFGIFVVVHWCAMAFWIIHGGTDFCMSKWEEILFNMVVGIVYIFCWFNVKEGRTRYRMFAYYTIVLTENAALTFLWYFYRDPETTDSYAVPALCCVFISFVAGIAMMLLYYGVLHPTGPRAKILASSCCAELLWGIPLPPDVEPMAPEIPGYRGTQVTPTRAVTEQQEDLTADTCLPVFQVRPMGPPTPLGRPYLPEGPLIKIDMPRKRYPAWDAHFVDRRLRRTINILQYVTPTAVGIRYRDGPLLYELLQYESSL | inactive: 0.00922 | inactive: -0.0233 | inactive: -0.0453 | inactive: -0.0501 | inactive: -0.000613 | inactive: 0.0544 | inactive: 0.00416 | inactive: -0.0461 | inactive: -0.0305 | inactive: 0.000545 | inactive: -0.147 | inactive: -0.0164 | inactive: 0.0145 | inactive: 0.00249 | inactive: 0.0563 | inactive: 0.0652 | inactive: 0.0724 | inactive: -0.00618 | inactive: -0.058 | inactive: -0.0446 | inactive: 0.0369 | inactive: -0.00358 | inactive: 0.00473 | inactive: 0.0244 | inactive: -0.015 | inactive: 0.0706 | inactive: 0.0299
